Measured values taken from the supplement of paper PMC9446081.
Hit rate of the full screen: of about 39,000 compounds, about 220 (0.56%) showed activity. The list shows a part of the results.

tested on: Escherichia coli K-12 BW25113; experiment: relative growth (OD600 normalised to plate interquartile mean) (fraction); higher = less growth inhibition, active = 0.2 or less; settings: 50 µM; LB; incubation time: overnight (16-24 h)
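Note: static incubation at 37 °C against the wild-type strain, values averaged over two biological replicates.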

Structure (SMILES)	relative growth
Cc1noc(C)c1S(=O)(=O)Nc1cccc2c1O[C@@H](CN(C)S(C)(=O)=O)[C@@H](C)CN([C@@H](C)CO)C2=O	inactive: 0.98
NC[C@@H](c1cccnc1)S(=O)(=O)c1ccc(Cl)cc1	inactive: 1.02
COc1ccc(S(=O)(=O)N(C)C[C@@H]2Oc3c(NC(=O)Nc4cccc5ccccc45)cccc3C(=O)N([C@@H](C)CO)C[C@H]2C)cc1	inactive: 1
CCN1C(=O)[C@@H]2CN(C(C)=O)C[C@@H]2C12CCN(C(=O)COC)CC2	inactive: 1.01
C[C@H]1CN([C@@H](C)CO)C(=O)c2cccc(NC(=O)C3CC3)c2O[C@H]1CN(C)S(=O)(=O)c1cn(C)cn1	inactive: 0.999
COc1ccc(NC(=O)N(C)C[C@H]2OCCCC[C@@H](C)Oc3ccc(NS(=O)(=O)c4ccc(F)cc4)cc3C(=O)N([C@@H](C)CO)C[C@H]2C)cc1	inactive: 1.03
CN(CC(=O)Nc1ccccc1)S(C)(=O)=O	inactive: 0.999
COc1cccc(S(=O)(=O)N(C)C[C@@H]2Oc3ncc(-c4cccc(C(=O)N(C)C)c4)cc3C(=O)N([C@H](C)CO)C[C@@H]2C)c1	inactive: 0.977
C=CC[C@H](CC(=O)N(CCO)Cc1ccccc1)C(=O)N[C@@H](COC(=O)[C@H](CC=C)CC(=O)OC(C)(C)C)Cc1c[nH]c2ccccc12	inactive: 1.08
C[C@@H]1CN([C@@H](C)CO)C(=O)c2cccc(NC(=O)C3CC3)c2O[C@@H]1CN(C)S(=O)(=O)c1ccccc1	inactive: 0.998
C[C@H]1CCCCO[C@@H](CN(C)Cc2ccc(C(=O)O)cc2)[C@@H](C)CN([C@@H](C)CO)C(=O)c2cc(NS(=O)(=O)c3ccccc3)ccc2O1	inactive: 0.998
C[C@H]1CN([C@@H](C)CO)C(=O)c2cc(NC(=O)Cn3cnnn3)ccc2O[C@@H]1CN(C)Cc1ccc(-c2ccccc2)cc1	inactive: 0.918
Cc1noc(C)c1S(=O)(=O)Nc1ccc2c(c1)CC(=O)N([C@H](C)CO)C[C@@H](C)[C@H](CN(C)Cc1ccc(Oc3ccccc3)cc1)O2	inactive: 1.01
CNC(=O)C[C@H]1CC[C@H]2[C@@H](COC[C@H](O)CN2C(=O)Nc2ccc3c(c2)OCO3)O1	inactive: 1.01
C[C@@H]1CN([C@@H](C)CO)C(=O)c2cc(NC(=O)Cc3ccccc3)ccc2O[C@@H](C)CCCCO[C@H]1CN(C)C(=O)c1ccccc1	inactive: 0.995
O=C(C[C@@H]1C=C[C@@H](NS(=O)(=O)c2ccccc2F)[C@@H](CO)O1)NCCCN1CCOCC1	inactive: 0.987
C[C@H](CO)N1C[C@H](C)[C@H](CN(C)Cc2ccc(C(=O)O)cc2)OCCCC[C@H](C)Oc2ccc(NC(=O)NC3CCCCC3)cc2C1=O	inactive: 0.981
C[C@@H]1CN([C@@H](C)CO)C(=O)c2cccc(NC(=O)CCCCCC(=O)Nc3ccccc3N)c2O[C@@H]1CN(C)C(=O)Nc1ccccc1	inactive: 0.99
CCCC#Cc1cnc2c(c1)C(=O)N([C@H](C)CO)C[C@H](C)[C@@H](CN(C)C(=O)c1ccc3c(c1)OCO3)O2	inactive: 0.968
NCCCCCc1cnc[nH]1	inactive: 0.984

Structure (SMILES)	relative growth
C[C@@H]1CN([C@@H](C)CO)C(=O)c2cc(NC(=O)Nc3ccc(C(F)(F)F)cc3)ccc2O[C@@H]1CN(C)CC1CCCCC1	inactive: 0.968
C[C@H]1CN([C@@H](C)CO)C(=O)Cc2cc(NC(=O)Cn3cnnn3)ccc2O[C@H]1CN(C)C(=O)Nc1ccc2c(c1)OCO2	inactive: 0.983
CCOC(=O)C[C@H]1CCCNC1	inactive: 1.02
OC[C@@H](O)[C@@H](O)[C@@H](O)[C@@H](O)[C@@H](O)CO	inactive: 1
C[C@@H]1CCCCO[C@@H](CN(C)C(=O)c2ccncc2)[C@@H](C)CN([C@H](C)CO)C(=O)c2cc(NC(=O)NC3CCCCC3)ccc2O1	inactive: 0.957
C[C@@H]1CN([C@@H](C)CO)C(=O)c2cc(NS(C)(=O)=O)ccc2O[C@H]1CN(C)C(=O)Nc1ccc2c(c1)OCO2	inactive: 0.975
C[C@@H]1CN([C@H](C)CO)C(=O)c2cc(NC(=O)NC3CCCCC3)ccc2O[C@@H](C)CCCCO[C@H]1CN(C)S(=O)(=O)c1ccc(F)cc1	inactive: 1.02
COc1cc2nc(N3CCCN(Cc4ccccc4)CC3)nc(Nc3ccc(F)c(Cl)c3)c2cc1OC	inactive: 1.02
C[C@@H]1CCCCO[C@@H](CN(C)C(=O)Nc2cccc3ccccc23)[C@H](C)CN([C@H](C)CO)C(=O)c2cc(NC(=O)C3CCCCC3)ccc2O1	inactive: 1.03
Cc1ccc(S(=O)(=O)N(C)C[C@H]2OCCCC[C@@H](C)Oc3ccc(NC(=O)Nc4ccc5c(c4)OCO5)cc3C(=O)N([C@@H](C)CO)C[C@H]2C)cc1	inactive: 1.03
C[C@@H]1CN([C@H](C)CO)C(=O)c2cccc(NC(=O)c3ccc(-c4nccs4)cc3)c2O[C@H]1CN(C)Cc1ccc(Cl)c(Cl)c1	inactive: 1.03
Cn1nnc2c(C(N)=O)ncn2c1=O	inactive: 1.06
COc1ccc(CCNC(=O)[C@@H]2c3ccccc3C(=O)N(CC34CC5CC(CC(C5)C3)C4)[C@H]2c2ccc(CO)cc2)cc1	inactive: 1
COc1ccccc1NC(=O)N(C)C[C@H]1Oc2cc(Br)ccc2S(=O)(=O)N([C@H](C)CO)C[C@H]1C	inactive: 1.04
C[C@H](CO)N1C[C@H](C)[C@@H](CN(C)C(=O)c2ccncc2)OCCCC[C@H](C)Oc2ccc(NS(=O)(=O)c3cn(C)cn3)cc2C1=O	inactive: 0.973
O=C1C=CC(=O)N1c1ccc(O)cc1	inactive: 0.881
C[C@H](CO)N1C[C@H](C)[C@H](CN(C)Cc2ccc(F)cc2)OCc2ccccc2-c2c(n(C)c3ccccc23)C1=O	inactive: 1.01
C[N+](C)(C)CCCCNC(=O)[C@H]1C[C@H]2C(=O)N[C@@H](CCCC[N+](C)(C)C)C(=O)N2[C@H]1c1ccc(O)cc1	inactive: 1.01
CN(C)CC[C@H](CSc1ccccc1)Nc1ccc(S(=O)(=O)NC(=O)c2ccc(N3CCN(Cc4ccccc4-c4ccc(Cl)cc4)CC3)cc2)cc1[N+](=O)[O-]	inactive: 1.03
C[C@@H]1CN([C@H](C)CO)C(=O)c2cc(NS(=O)(=O)c3ccc(Cl)cc3)ccc2O[C@@H]1CN(C)Cc1ccc(C(F)(F)F)cc1	inactive: 1.04

Structure (SMILES)	relative growth
COc1cccc(O)c1O	inactive: 0.984
O=C(C[C@H]1CC[C@@H](NC(=O)c2cnccn2)[C@@H](CO)O1)NCc1ccccc1F	inactive: 1.03
C[C@@H]1CN([C@H](C)CO)C(=O)c2cccc(NC(=O)C3CC3)c2O[C@H]1CN(C)Cc1ccc(C(=O)O)cc1	inactive: 0.97
CC(C)(C)NC(=O)[C@@H]1CN(Cc2cccnc2)CCN1C[C@@H](O)C[C@@H](Cc1ccccc1)C(=O)N[C@@H]1c2ccccc2C[C@@H]1O	inactive: 0.993
C[C@H]1CN([C@@H](C)CO)C(=O)c2cccc(NS(=O)(=O)c3cn(C)cn3)c2O[C@H]1CN(C)C(=O)Nc1ccccc1	inactive: 1.03
COCCOC(=O)N1C(=O)[C@@]2(c3cc(C#CC4=CCCCC4)ccc31)[C@H](C(=O)N1CCCCCCC1)[C@H]1C(=O)O[C@H](c3ccccc3)[C@H](c3ccccc3)N1[C@@H]2c1ccc(OCCO)cc1	inactive: 1.06
CCCNC(=O)N1C[C@]2(CN(C2)S(=O)(=O)c2cccc(c2)OC)c2c(n(c3cc(ccc23)OC)C)[C@H]1CO	inactive: 0.984
COc1ccc(C(N)=S)cn1	inactive: 0.961
CC=CC1=C(C(=O)O)N2C(=O)C(NC(=O)C(N)c3ccc(O)cc3)C2SC1 (stereo not given)	inactive: 1.08
N#Cc1cc(F)c(N)c2[nH]cc(S(=O)(=O)c3ccc(NC(=O)c4cc(S(N)(=O)=O)cs4)cn3)c12	inactive: 0.974
COc1cccc(CNC(=O)c2cc3c(c(-c4cccc(-c5cccc(C#N)c5)c4)n2)[C@@H](CCO)N([S@](=O)C(C)(C)C)C3)c1	inactive: 1
C[C@@H]1CN([C@H](C)CO)C(=O)c2cc(NC(=O)C3CCCCC3)ccc2O[C@@H](C)CCCCO[C@H]1CN(C)S(=O)(=O)c1ccc(Cl)cc1	inactive: 1.03
C[C@H]1CCCCO[C@H](CN(C)C(=O)Nc2ccc(F)cc2)[C@@H](C)CN([C@@H](C)CO)C(=O)c2cc(NS(=O)(=O)c3ccccc3)ccc2O1	inactive: 1.01
C[C@@H]1CCCCO[C@@H](CN(C)S(=O)(=O)c2ccccc2)[C@@H](C)CN([C@@H](C)CO)C(=O)c2cc(NC(=O)C3CCCCC3)ccc2O1	inactive: 1.02
C[C@H]1CN([C@@H](C)CO)C(=O)c2c(c3ccccc3n2C)-c2ccccc2CO[C@@H]1CN(C)S(=O)(=O)c1cn(C)cn1	inactive: 1.01
NC(=O)CC[C@@H](N)C(=O)O	inactive: 1.02
C[C@H]1CCCCO[C@@H](CN(C)S(=O)(=O)c2ccccc2)[C@@H](C)CN([C@@H](C)CO)C(=O)c2cc(NS(C)(=O)=O)ccc2O1	inactive: 1.01
Cc1ccc(S(=O)(=O)Nc2ccc3c(c2)C(=O)N([C@H](C)CO)C[C@H](C)[C@H](CN(C)C(=O)NC2CCCCC2)OCCCC[C@H](C)O3)cc1	inactive: 0.989
C[C@@H]1CCCCO[C@@H](CN(C)S(=O)(=O)c2ccc(Cl)cc2)[C@@H](C)CN([C@H](C)CO)C(=O)c2cc(NC(=O)c3ccncc3)ccc2O1	inactive: 1.01
COc1ccc(S(=O)(=O)Nc2ccc3c(c2)CC(=O)N([C@H](C)CO)C[C@H](C)[C@@H](CN(C)S(=O)(=O)c2cccs2)O3)cc1	inactive: 1.01
